Hit rate of the full screen: of about 50,000 compounds, about 800 (1.6%) showed an effect of 50% or more. The list shows a part of the results.

In the assay the target is Bcl-2-like protein 10 (Homo sapiens) (UniProt Q9HD36). Put plainly: Phenotype converters, Bcl-B/TR3 peptide binding displacement, primary biochemical FP (AID 1240).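 Note: 0% = Bcl-B with tracer peptide and DMSO and 100% = tracer peptide lacking Bcl-B.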 As to conditions: GST-Bcl-B / FITC-TR3 peptide fluorescence polarization; stronger effect = higher value; compound at 3.75 mg/L.
Sequence of UniProt Q9HD36 (Q9HD36 whole entry, looked up): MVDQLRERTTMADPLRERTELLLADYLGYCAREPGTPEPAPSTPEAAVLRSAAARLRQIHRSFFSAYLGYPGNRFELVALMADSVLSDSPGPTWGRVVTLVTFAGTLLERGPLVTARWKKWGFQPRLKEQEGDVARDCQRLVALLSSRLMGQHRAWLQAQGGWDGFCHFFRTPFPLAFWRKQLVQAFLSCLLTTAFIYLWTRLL
Take `COc1ccc(N(CC(=O)Nc2cccc(C(F)(F)F)c2)S(C)(=O)=O)cc1`: the displacement was -0.8%.
For the molecule `Nc1nonc1C(=O)NCCNC(=O)c1cccc(Br)c1`, the displacement came out at 12.6%.
As to `Cc1ccc(N(CC(=O)NCc2ccco2)S(=O)(=O)c2ccc(F)cc2)cc1`, the displacement is -11.5%.
On to `O=c1/c(=C/c2ccccc2OS(=O)(=O)c2ccccc2)sc2nc3ccccc3n12`, for which the displacement is 18.6%.
For `Cc1c(NC(=O)CN(c2ccc(F)cc2)S(=O)(=O)c2ccccc2)c(=O)n(-c2ccccc2)n1C`, the displacement is -1.5%.
Turning to `COc1ccc(-c2nc3cc(NC(=S)NC(=O)c4ccccc4Cl)ccc3o2)cc1Cl`, the displacement is -22.1%.
As to `Cc1ccc2oc(-c3ccccc3N)nc2c1`, the displacement was found to be 3.4%.
Take `O=C1CCCC2=C1C(c1ccc([N+](=O)[O-])cc1)C1=C(CCCC1=O)O2`: the displacement was -2%.
As for `COc1cc(C=C2C(=O)NC(=O)NC2=O)ccc1OCc1cccc(F)c1`, the displacement came out at 32.7%.
As to `COC(=O)c1cc(NC(=O)COc2cc(C)c(Cl)c(C)c2)cc(C(=O)OC)c1`, the displacement was found to be 5.1%.
As to `CCC(=O)Nc1cccc2c1C(=O)c1ccccc1C2=O`, the displacement came out at 11.2%.
The value for `COc1ccc(/C=C/c2nc3sc4c(c3c(=O)o2)CCCC4)cc1` was 16.8%; that for `COc1ccc(OC)c(NC(=S)Nc2ccc(F)cc2)c1` was -3.2%.
Consider `CCOC(=O)N1CCN(c2cc(C)c([N+](=O)[O-])cc2F)CC1`, for which the displacement is -18.2%.
The value for `CCC(C(=O)NCc1ccco1)c1ccccc1` (stereo not given) was -0.7%.
`O=S(=O)(NCc1ccccc1)c1cccc(S(=O)(=O)c2ccccc2)c1`: the displacement is -13.4%.
Consider `C/C(=N\OCC(=O)N=Nc1c(O)n(CN2CCN(C)CC2)c2ccccc12)c1cccs1`, for which the displacement was -6.2%.
The value for `O=C1C(=O)c2ccccc2/C1=C\c1cccc2ccccc12` was 11.8%.
For the molecule `COc1ccc(-c2nnc3ccc(C(F)(F)F)cn23)c(OC)c1`, the displacement is -6.2%.
For `CCN(CC)c1ccc(/C=C(/NC(=O)c2ccccc2Br)C(=O)NCCCC(=O)O)cc1`, the displacement was -2.6%.
With `Cc1onc(-c2c(Cl)cccc2Cl)c1C(=O)NC1CCCC1`, the displacement was 1.5%.
Take `O=C(NCc1ccco1)c1nn2c(c1Cl)NC(c1cccs1)CC2C(F)(F)F` (stereo not given): the displacement was determined as 4.5%.
The value for `CCOC(=O)c1c(C)[nH]c(N=Nc2ccccc2C)c1C` was 5.1%; that for `COc1ccc(OC)c(CN2CCN(Cc3ccc(Br)cc3)CC2)c1` was 0.4%; that for `COc1ccc(-c2cc(C(=O)NCCc3ccc(OC)c(OC)c3)c3ccccc3n2)c(OC)c1` was 2.6%.
For the molecule `CCOC(=O)c1c(-c2ccccc2)oc2cc(Br)c(OCC)cc12`, the displacement stood at 8%.
Then `CCN(CC)c1ccc(N2C(=O)/C(=C/c3ccc([N+](=O)[O-])cc3)SC2=S)cc1`, with -3.3%.
Take `COc1cc(C2NC(=S)NC(C)=C2C(=O)Nc2ccc(C)cc2)ccc1O` (stereo not given): the displacement turned out to be 2.8%.
`COc1cc(/C=C/c2cc(C(F)(F)F)[nH]c(=O)n2)cc(OC)c1OC`: the displacement came out at 2.7%.
As for `Cc1ccc([N+](=O)[O-])cc1N=Cc1ccc([N+](=O)[O-])o1`, the displacement was -0.3%.
Regarding `COCCCNCCOCCOc1cccc(OC)c1`, the displacement was -8%.
Consider `CCCC(=O)C1=C(N2CCCCC2)CC(C)(C)C(C(=O)OC)C1=O` (stereo not given), for which the displacement was determined as 0.8%.
The value for `C=CCNC(=O)CN(c1ccc(OCC)cc1)S(=O)(=O)c1ccc(SC)cc1` was 0.6%; that for `Cc1cccc(C(=O)NNC2=C(C(=O)C(F)(F)F)CCC2)c1O` was -12.1%.
In the case of `OC1CC(c2ccccc2)NC(c2ccco2)C1` (stereo not given), the displacement turned out to be 11.4%.
`O=C(O)c1cccc(NC(=O)c2cc(S(=O)(=O)NCc3ccccc3)ccc2Cl)c1`: the displacement is -7.6%.
Regarding `CCOc1ccc(/C=C2/SC(=O)N(CNc3cccc(Br)c3)C2=O)cc1`, the displacement was found to be 1.9%.
Consider `COc1ccc(CCNC(=O)C2CC(=O)N(c3ccc(F)cc3)C2)cc1` (stereo not given), for which the displacement came out at 6.2%.
With `CSc1cccc(NC(=O)CSc2nc3ccccc3s2)c1`, the displacement is 6.4%.
Then `COc1ccc(C(=O)O/N=C2/C(=O)N(C)c3ccccc32)cc1OC`, with 15.7%; and `COc1ccc(/C=N/NS(=O)(=O)c2ccc(C(C)(C)C)cc2)c(OC)c1`, with 7.1%; and `Brc1ccc(OCCCN2CCOCC2)cc1`, with 8.9%.
Consider `CCC1S/C(=N/N=C/c2ccc3c(c2)OCO3)NC1=O` (stereo not given), for which the displacement was -13.8%.
The value for `CN1CCN(c2nc(-c3ccccc3O)nc3ccccc23)CC1` was 15.1%; that for `Cc1ccc(Sc2c(C)nn(C(=O)c3cccnc3)c2C)cc1` was -10.3%.
The value for `Cc1ccccc1N(CC(=O)NCC(C)c1ccccc1)S(=O)(=O)c1ccccc1` (stereo not given) was -8%.
With `COc1ccccc1N1CCN(C(=O)c2cnn3c2NC(c2ccc(Br)cc2)CC3C(F)(F)F)CC1` (stereo not given), the displacement is 9.1%.
Then `CC(C)OC(=O)c1c(-c2ccccc2)csc1NC(=O)CCC(=O)O`, with 3.5%; and `O=C(/C=C\c1ccc([N+](=O)[O-])cc1)Nc1ccc(N2CCOCC2)cc1`, with 6%.
With `C=CCNc1nc(-c2ccc(C)cc2C)cs1`, the displacement was -3.1%.
With `CSc1ccc(-c2ncnn2-c2ccccc2Cl)cc1`, the displacement was -10.1%.
For `Cc1ccc(N(CC(O)CN2CCOCC2)S(=O)(=O)c2ccccc2)cc1` (stereo not given), the displacement was -2.5%.
Consider `c1ccc(Oc2cccc(CN3CCN(C4CCCC4)CC3)c2)cc1`, for which the displacement was -5.2%.
Take `Cc1ccc(N2C(=O)c3ccccc3NC2c2c(F)c(F)c(F)c(F)c2F)cc1` (stereo not given): the displacement is 7.8%.
`Cc1cccc(C(=O)N/N=C/c2ccc(OCC(=O)N3CCCCC3)cc2)c1`: the displacement was -7%.
`CC(C)c1cccc(C(C)C)c1NC(=O)C(F)(F)F`: the displacement is -1.3%.
Take `Cc1c(C(c2cc(O)c(O)c(Br)c2)c2c(C)n(C)n(-c3ccccc3)c2=O)c(=O)n(-c2ccccc2)n1C`: the displacement was found to be 35.5%.
For the molecule `O=C(O)c1cnn2c1NC(c1ccc3c(c1)OCO3)CC2C(F)(F)F` (stereo not given), the displacement was -2.8%.
As to `COc1cc(OC)c(C=Nc2cccc(C(N)=O)c2)cc1Br`, the displacement was -7.2%.
`Cc1cc(OCC(=O)NCc2ccc3c(c2)OCO3)ccc1Br`: the displacement is -9.2%.
For the molecule `COc1cc([N+](=O)[O-])ccc1NS(=O)(=O)c1ccc(F)cc1`, the displacement worked out at 14.5%.
Regarding `Oc1ccc(/C=N/Nc2cc(N3CCCCC3)nc(N3CCCCC3)n2)c(O)c1`, the displacement worked out at 3.2%.
The value for `CC(=O)COc1ccc2c(C)c(C)c(=O)oc2c1` was 13.2%.
Then `Cc1ccc(OC(=O)CCN2C(=O)c3ccccc3C2=O)cc1C`, with -2.2%; and `C=CCSc1nc(N)c(C#N)c(-c2cccs2)c1C#N`, with 3.6%.
`CCN1C(=O)/C(=C\c2ccc(-c3ccc(F)cc3)o2)SC1=S`: the displacement was 0.7%.
As to `CC(=O)NS(=O)(=O)c1ccc(NC(=O)CCc2ccccc2)cc1`, the displacement is 7.9%.
The value for `C=CCN1C(=O)NC(=O)/C(=C/c2cc(OC)c(OC(C)=O)c(OC)c2)C1=O` was 7.4%.
In the case of `COc1cc(OC)c(C2NC(=S)NC(C)=C2C(=O)Nc2ccc(Cl)cc2)cc1OC` (stereo not given), the displacement is 9.6%.
On to `COc1ccc(OC)c(N(CC(=O)N/N=C/c2ccc(OC3CSC3)cc2)S(=O)(=O)c2ccccc2)c1`, for which the displacement came to 7.5%.
Regarding `O=C(Cc1n[nH]c(=O)[nH]c1=O)N/N=C/c1ccc(C(F)(F)F)cc1`, the displacement is -4.6%.
Then `COC(=O)c1ccc(/C=C/C(=O)c2cccs2)cc1`, with 2.9%; and `CC(Oc1ccccc1)C(=O)N1CCN(c2ccc(F)cc2)CC1` (stereo not given), with 0.6%; and `O=C(Nc1ccc(F)c(Cl)c1)c1cnccn1`, with 2.4%.
Regarding `CCN(Cc1ccccc1)S(=O)(=O)c1ccc([N+](=O)[O-])cc1`, the displacement is -9.7%.
`O=C1/C(=C/c2ccc(Br)cc2)SC(=S)N1CCc1ccccc1`: the displacement is 7.1%.
As for `COc1ccc(CCNC(=O)C2CCCC2)cc1OC`, the displacement stood at 40.3%.
For the molecule `COc1cc(OC)cc(C(=O)NC2CCCCCCC2)c1`, the displacement came out at 1.7%.
Turning to `COc1ccc(/C=N/NC(=O)C2CC2)c(OC)c1OC`, the displacement is 17.7%.
`CCOc1ccc(N2C(=O)NC(=O)/C(=C\C3C(=O)N(c4ccccc4)N=C3C)C2=O)cc1` (stereo not given): the displacement was found to be 6%.
Regarding `CC(=O)Nc1ccc2oc(-c3cccc(Cl)c3)nc2c1`, the displacement came out at 15.2%.
With `O=C(CCNc1cccc(C(F)(F)F)c1)c1ccc([N+](=O)[O-])cc1`, the displacement is -10.1%.
On to `Cc1ccc(OCC(=O)Nc2ccc(S(N)(=O)=O)cc2)c(C)c1`, for which the displacement worked out at 1.9%.
Consider `O=C(NN1CCOCC1)c1ccc(Cl)cc1Cl`, for which the displacement stood at 2.7%.
As for `CN(C)C(=S)S/C=C/C(=O)c1ccccc1`, the displacement was -1.8%.
On to `Cc1ccc2cccc(S(=O)(=O)c3ccc(C(F)(F)F)cc3[N+](=O)[O-])c2n1`, for which the displacement is -2.5%.
Take `CC(C)OC(=O)c1c(-c2ccc(Cl)cc2Cl)csc1N`: the displacement was -0.6%.
`O=[N+]([O-])c1ccc(-c2ccc(I)cc2)cc1`: the displacement is 5.1%.
In the case of `CC1CCN(CCOCCOc2ccccc2F)CC1`, the displacement is -3.8%.
For `COc1ccc(/C=C2/SC(=S)N(c3cccc(Cl)c3)C2=O)cc1`, the displacement is 44.2%.
For `O=C(CCC1CCCC1)Nc1ccc([N+](=O)[O-])cc1`, the displacement was -6.4%.
With `c1cncc(CN2CCN(Cc3ccc4ccccc4c3)CC2)c1`, the displacement was -10.9%.
For `CCCCOc1ccc(C=O)cc1OCC`, the displacement is -7.3%.
As to `COc1ccc(NC(=O)COc2ccc(OC)cc2)cc1`, the displacement was -2.8%.
For the molecule `COc1ccc(-c2nc3sc(C)c(C)c3c(=O)[nH]2)cc1C`, the displacement was -8%.
For the molecule `CC(C)c1ccc(NC(=O)CN(c2ccc(Oc3ccccc3)cc2)S(C)(=O)=O)cc1`, the displacement turned out to be 0%.
Then `COC(=O)c1c(C)oc2ccc(OC(C)=O)cc12`, with 14.1%; and `Cc1ccc2c(c1)c(-c1ccccc1)nc1nnnn12`, with 3%.
On to `O=C(Nc1ccccc1)Nc1nnc(Cc2ccc([N+](=O)[O-])cc2)s1`, for which the displacement is -0.3%.
As to `O=c1[nH]c(/C=C/c2ccc(OCc3ccccc3)cc2)c([N+](=O)[O-])c(=O)[nH]1`, the displacement came to 114%.
For the molecule `CC(C)CSc1nc(O)c(C(c2ccccc2)c2ccccc2)c(=O)[nH]1`, the displacement was -0.7%.
The value for `CS(=O)(=O)/N=C(\N)Nc1nc2ccccc2o1` was -3.9%.
Consider `CCCOc1cccc(C2C3=C(CC(C)(C)CC3=O)Nc3ccccc3N2C(=O)CC)c1` (stereo not given), for which the displacement was -16.7%.
`COC(=O)C1=C(C)NC2=C(C(=O)c3ccccc32)C1c1ccc(OCc2ccc(F)cc2)c(Cl)c1` (stereo not given): the displacement is -0.8%.
Take `CCOc1ccc2c(c1)C(C)=CC(C)(C)N2C(=O)Nc1ccccc1`: the displacement is 17.4%.
The value for `CCOC(=O)C1=C(O)/C(=C\c2ccccc2OC)N=C1C` was 3.3%; that for `Nc1nnc(SCC(=O)Nc2ccccc2-c2ccccc2)s1` was -13.5%; that for `COc1ccc(C(=O)NC(NCc2ccccc2)C(Cl)(Cl)Cl)cc1OC` (stereo not given) was 3.7%.
The value for `Cc1cc(C)c2oc(-c3ccc(C)c(NC(=O)c4ccc(Br)o4)c3)nc2c1` was -3.8%; that for `COc1cc(C(=O)Nc2ccc(Cc3ccncc3)cc2)cc(OC)c1OC` was 14.8%.

(Values after PubChem BioAssay AID1240 (Sanford-Burnham Center for Chemical Genomics, 2008).)
